From ChEMBL document CHEMBL4888484, “Replenishing the malaria drug discovery pipeline: Screening and hit evaluation of the MMV Hit Generation Library 1 (HGL1) against asexual blood stage Plasmodium falciparum ,using a nano luciferase reporter read-out” (2022)
In all, about 150,000 compounds went through this assay and about 540 (0.36%) showed an effect of 50% or more. The list shows a part of the results.

test system: Plasmodium falciparum; assay: Primary screen in NF54 nanoGlo assay, in single point, at 2uM, 72h; a lower Z score goes with more inhibition; format: functional, Erythrocyte; conditions: timepoint 72 hour

SMILES	% Inhibition	Z score
O=C(NC1CCOCC1)N[C@H]1CCN(Cc2ccsc2)C1	-12%	1.83
CCN(C[C@H]1CCCCO1)C(=O)c1ccc(-c2cc(O)nc(N)n2)cc1	-12%	2.19
O=C(COc1ccc(Cl)cc1)NCc1ccccc1CN1CCOCC1	-12%	1.41
C[C@H]1Cc2ccccc2N1C(=O)Cn1nc(-n2cccn2)ccc1=O	-2%	0.41
NC(=O)c1ccc(NCCOc2cccc(Cl)c2Cl)nn1	-9%	1.2
O=C1O[C@H](C(=O)Nc2ccccc2-n2ccnn2)Cc2ccccc21	-11%	1.13
N#Cc1c(NC(=O)Cn2nc3cnccn3c2=O)sc2c1CCCCC2	1%	-0.06
CCN(Cc1noc(C)n1)Cc1cc2cc(OC)ccc2[nH]c1=O	1%	-0.14
CC1=C[C@@H](CNC(=O)CC2(CC(=O)O)CCCC2)[C@H](C(C)C)C[C@H]1Cc1nc2ccccc2n1C	23%	-2.59
CC(=O)N(CCC(=O)N(C1CC1)[C@@H](C)C1CC1)Cc1ccccc1	-11%	2.14
CN(Cc1cccn1C)S(=O)(=O)Cc1ccc(F)c(Cl)c1	2%	-0.38
Nc1c(NC(C2CC2)C2CC2)ncnc1-n1cccn1	-48%	5.6
O=S1(=O)CC(O)C(N2CCCC3(CCCCCC3)C2)C1 (stereo unspecified)	-2%	0.2
c1ccc(CN=C(NCCN2CCOCC2)NCC2CC2)cc1	-13%	1.81
COCCN1C[C@]2(CCCN(c3nccc(N)n3)C2)CCC1=O	8%	-0.88
Cc1nonc1OCCN1C[C@@](C)(c2ccccc2)CCC1=O	12%	-1.58
Cc1[nH]c(C)c(S(=O)(=O)NCc2ccccc2)c1-c1nc(C2CC2)no1	-8%	1.64
CCc1ccc(NC(=O)c2ccc(N3CC(C)CC(C)C3)c(NS(=O)(=O)c3cc(OC)ccc3OC)c2)cc1 (stereo unspecified)	-4%	0.55
Cc1ccccc1OC[C@H](O)C(=O)NCC1(CN2CCN(C)CC2)CC1	-16%	2.39
CC(C)(C)NC(=O)NC(=O)CNC1(C(=O)OC(C)(C)C)CCCC1	-10%	1.38
Cc1ccc([C@H](C)NC(=O)N2CCC3(CCCCCC3)C2)cn1	-3%	0.35
C=CCN(CC=C)CCOc1ccccc1	4%	-0.53
COc1ccc([C@@H]2CCCN2C(=O)c2ccc(=O)[nH]n2)cc1OC	-16%	1.41
O=C(c1nccc2ccccc12)N1CCO[C@H](c2ccccc2)C1	-7%	0.68
Cc1cc(C)nc(N2CCCC(C(=O)N[C@H](CC(C)C)c3nnc4ccccn34)C2)n1 (stereo partly specified)	8%	-1.1
CC[C@H](C)NC(=O)CN1CN(c2ccccc2)C2(CCN(C(=O)Nc3ccccc3C)CC2)C1=O	-7%	1.3
O=C(NC[C@H]1COCCO1)NC1(CO)CCC1	-9%	1.59

SMILES	% Inhibition	Z score
COc1ccccc1C1CN(C(=O)c2ccccc2F)CC1C(=O)NC1CC1 (stereo unspecified)	-12%	1.78
CC(=O)Nc1ccc(-c2cc(-c3ccc(NC(C)=O)cc3)nc(-c3ccc(Br)cc3)n2)cc1	1%	-0.14
CC[C@H](C)N(Cc1ccncc1)C(=O)CNC(=O)c1ccccc1	3%	-0.39
CCCCC(N)C(=O)NC(C)c1cccnc1 (stereo unspecified)	12%	-1.39
O=C(c1cccc(F)c1)N1CCC[C@@]2(C1)Nc1ccccc1N=C2NC1CCCC1	29%	-3.33
Cc1ccc(CNCc2ccc(N3CCNC(=O)C3)cc2)cc1C	-12%	1.6
C[C@@H]1CC[C@H](C(=O)O)[C@H](C)N1Cc1cc(-c2ccc(Cl)cc2)no1	-12%	1.58
Cc1cnc2c(cnn2CC(=O)N2CCC(O)(C3CCC3)CC2)c1	0%	-0.04
Cc1ccccc1C(=O)N1C(=O)N(c2ccc(Cl)cc2)C2(C)CC1c1ccccc1O2 (stereo unspecified)	-2%	0.18
NS(=O)(=O)N1CCn2c(cc3ccc(Cl)cc32)C1	-3%	0.57
Cc1nn(C)c(C)c1C(=O)Nc1ccc(-n2ncc3ccccc32)cc1	-12%	1.67
O=C1CC[C@H](C(=O)Nc2cccnc2)CN1	-3%	0.43
c1ccc2c(-c3nccn3CCn3ccnc3)cccc2c1	-13%	1.82
C[C@H](CO)N(C)c1cc(-c2ccccc2)nc2ncnn12	-8%	1.19
C=CCNC(=O)N1C[C@@H]2Oc3ccccc3S(=O)(=O)NC[C@H](O)CN(C)[C@@H]2C1	13%	-2.04
O=C(NCCn1nc(C2CC2)ccc1=O)c1cscn1	11%	-1.39
O=C(NCC[C@H]1CCC(F)(F)C1)c1cncc(N2CCCC2=O)c1	-15%	1.6
CC1(CO)CCCC1Nc1ncc(Br)cn1 (stereo unspecified)	-13%	1.31
COc1ccc(CCNC(=O)CCc2c(C)[nH]c(=O)n(C)c2=O)cc1OC	0%	0.01
CC(C)(C)OC(=O)Nc1cc(NC(=O)CC#N)c(F)c(F)c1F	10%	-1.43
O=C(NC1(C(F)(F)F)CC1)[C@@H]1CN(S(=O)(=O)c2ccccc2Cl)CCO1	-12%	2.3
CC(NCc1ccc(S(=O)(=O)CCO)cc1)[C@H]1COC(C)(C)O1 (stereo partly specified)	21%	-2.64
c1ccc(C2=N[C@@H](c3ccccc3)[C@@H](c3ccccc3)N2)cc1	3%	-0.39
O=C(CC1(C(=O)O)Cc2ccccc2C1)N1CCc2sccc2C1	-11%	1.01
Cc1ccc2c(c1)[C@H]1OCC[C@H]1C(c1ccncc1)N2 (stereo partly specified)	-7%	1.2
N#Cc1cn(Cc2ccc(OC[C@H]3CCCO3)cc2)c(=O)[nH]c1=O	8%	-1.56
